Consider 167 variants from the RNAGym collection of RNA variant scans (doi:10.7554/elife.90254).

Sequences and labels used below:
B1: LINE1-mini (parent)
chain: GGCAGAGCUCAACACAGCGUGGCAAAGUGGCUGUGGCUAGACUGCC

Read counts are not given, so values of variants with three or more changes are uncertain.

This data set covers variants of B1. In words: self-cleavage, relative activity (ratio to wild type); higher = more cleavage; in vitro, sequencing; the parent is a self-cleaving ribozyme.
Consider C31U C37U C46U, for which the self-cleavage was found to be 0.02.
Then U28A G35U C42U, with 0.09.
Then U34C G35C U38C, with 0.03; and C31U A41U U43G, with 0.05; and G30C U32A A41C C42G, with 0.04.
U32C A39U G40C: the self-cleavage is 0.01.
Then G29U G33U G36U, with 0.06; and G29U C31G U32G A41G C42A, with 0.03; and U32G A41U C45G, with 0.17.
G30U G33U A41U: the self-cleavage was 0.26.
Take C31G G36U U43G C45G: the self-cleavage was found to be 0.06.
Then G35U C37U U43A G44U, with 0.01; and G29C G36U A39C G40U, with 0; and G33U G36A A41C, with 0.07.
Regarding G30U G40U C42A, the self-cleavage is 0.03.
Then G29U U38C G40U, with 0.05; and U32A C37G U43A, with 0.09.
Then C31U G35U C37A, with 0.03.
Turning to G27U A41C C42A, the self-cleavage came to 0.03.
As to C31A U32C G40C, the self-cleavage is 0.01.
As for G29A G40U U43G, the self-cleavage came out at 0.02.
Then G29A G35A A39G C45U, with 0.05; and G29A U32C C45G, with 0.07.
Regarding C31U U38G A41G, the self-cleavage was 0.02.
Then U34A A39C U43C, with 0.02; and C31G G40A C45G, with 0.08; and C31U G35U G44U, with 0.03.
Then C31U G40U C45U, with 0.
Turning to U32A C37A C46U, the self-cleavage turned out to be 0.06.
As to G35C U38A A39U C46U, the self-cleavage is 0.05.
Then G29C G30C U43C C45U, with 0.03; and U32A A39G C46A, with 0.02; and G27U A39C C42U, with 0.07.
In the case of G36U U38C A41G, the self-cleavage stood at 0.05.
Then G36U C37G U43A, with 0.13; and G29U C42A C45A, with 0.14.
As to G27U U28A C45A, the self-cleavage worked out at 0.71.
Then G33A U38A C42U, with 0.02; and U28G G33A G40U, with 0.05; and C31G U34A A41G, with 0.02.
As to G27U C31G G40U C45A, the self-cleavage amounted to 0.01.
Consider G33A U34A U38G G40A, for which the self-cleavage turned out to be 0.11.
Then G29C G30C G44C, with 0.09.
Turning to U28C C31G C46A, the self-cleavage was 0.05.
On to C31A U34C A39C C45A, for which the self-cleavage was 0.02.
Then U32C U38G G40A, with 0.06.
Then U28C G35C G44C, with 0.11; and C31U C42A C45G, with 0.01.
Take C31U C37A A41G: the self-cleavage was found to be 0.05.
Regarding C31G U32A G40A G44A, the self-cleavage came out at 0.01.
Then U28G U32A G35U, with 0.16; and U34C A39U G40A, with 0.06.
Then U34A G35U G40U U43A, with 0; and G29C G33U G35U C45U, with 0.05; and G30U A39G C42A, with 0.06.
Then G35U C42A C45U, with 0.06; and C31G G35A U38C U43G C45U, with 0.
Turning to C31A G35C C42A, the self-cleavage was 0.06.
Then G30A C31A G35U, with 0.05.
Then G29C U32A U34C, with 0.05.
G30U U32G A41U C42A: the self-cleavage turned out to be 0.03.
Then U28G G30C A41U, with 0.6; and G27U U38C G44U, with 0.8; and C31U U32C U38C, with 0.03.
Then G33U C37U U38G G44U, with 0.05.
Regarding U32C G33U G40U, the self-cleavage came to 0.12.
Then U32A C42G G44A, with 0.31.
Regarding U28C G30A U32A G40C, the self-cleavage amounted to 0.16.
Then U34C G35U C37A G40U, with 0.18.
Then G29U G30A U32A, with 0.26; and G29A G35C A39C, with 0.81.
Turning to C31G G33C A41U, the self-cleavage was 0.04.
In the case of U28A A41C C42U, the self-cleavage is 0.02.
Then C31U A41U C46U, with 0.08; and G27C U43G C45U, with 0.03; and G33U U38C G40A, with 0.08.
In the case of G30C G33U U43G G44U, the self-cleavage came out at 0.21.
On to U28C U32G G35A, for which the self-cleavage came out at 0.03.
Then U34A C37A A41C, with 0.01; and G35U A41U G44C, with 0.03; and C31G C37A G44A C46U, with 0.07.
Then G29U U38A G40C, with 0.12; and G29U G35C C37G, with 0.03.
Then G36U C42U C45U, with 0; and G27C U38A A39G, with 0.08; and C31U G35A G40U, with 0.
Consider G30U G40C G44C, for which the self-cleavage amounted to 0.06.
Then U32A G36C C37U, with 0.02; and G29U C31A C42U G44C, with 0.04; and C31G C42A U43G, with 0.03.
Then U32G C37A C45A, with 0.02; and U28G C31A G33A C42U, with 0.02; and G29A G36C A41G, with 0.06.
Regarding G33A G36A C45G, the self-cleavage is 0.03.
Then U28A G35A C42A, with 0.06; and U34C C37U G44U, with 0.02.
For the variant C31U G33U G35U G40C G44U C46G, the self-cleavage amounted to 0.
As to G33A A41G U43G, the self-cleavage turned out to be 0.01.
Then G35C C37A C45G, with 0.33; and G36U C37G G40C C45A, with 0.06; and G30U C31A G33U, with 0.12.
Then G30C G33A G35U A41U U43A, with 0.04.
Then U28C C31G A41G, with 0; and G33A A39C G44A C45G, with 0.03.
For G35A C37U C45U C46A, the self-cleavage came to 0.03.
For the variant C31U G40A C42U, the self-cleavage is 0.
Turning to C31A U38G C42G, the self-cleavage was 0.09.
For the variant G29A C31G U38G, the self-cleavage amounted to 0.02.
U28C G33U C46A: the self-cleavage worked out at 0.13.
For the variant G30A U34C A39U C46A, the self-cleavage turned out to be 0.19.
Then G30A G36A C45U, with 0.15; and G29A G35U U38G, with 0.02; and C31A G33U C46A, with 0.11.
As for U28A G33C C42A, the self-cleavage amounted to 0.04.
Then U28A G33C A41G C45A, with 0.03; and G30A C31A U32C G33U G44C C45U, with 0.01.
Then G33C G36A A41U, with 0.02; and G29U G35C G40U C46G, with 0.21.
Then U28A G30U G35A G36U A39G, with 0.04.
For G27U U34G G44C, the self-cleavage was determined as 0.05.
Then G29U G40U C42G, with 0.08; and G30U G36A G44C, with 0.01.
Then G36U G40A C45U, with 0.24; and G30U C31G G44C, with 0.06; and G27U G29U C37G, with 0.03.
Take G29U G35A C42A: the self-cleavage was found to be 0.
Then G30A C31G G36U, with 0.01; and G30A U32G G35U, with 0.03; and U28G G30C G44U, with 0.04.
Then G36C G40A G44U, with 0.07; and G30C C31U G40U, with 0.02.
Then G27U U34G C37A, with 0.04; and G30C U32G C37U G44U, with 0.03; and G33C G40U C42U, with 0.03.
For the variant C31A G33C C37A C45U, the self-cleavage came to 0.08.
Then C31U A39C C42U, with 0.02; and G35U U38G G44C, with 0.05.
Then G29U U38G G44C, with 0.02; and G30C G33C G40U, with 0.07.
Then U32G G33C G44U, with 0.08; and G30C G33C C46A, with 0.04; and G29U C37U A39G C42G, with 0.03.
Turning to U28A G30A U34G C42U, the self-cleavage turned out to be 0.03.
Consider G30U C37A G44A, for which the self-cleavage is 0.06.
Then G27U U28G U34A G35C, with 0.06.
Then G33U C42U G44C, with 0.03; and G29U G44U C45A, with 0.21; and U28G C31U G35A C46A, with 0.02.
Then G27U C37A C46G, with 0; and G30A U34C C42U, with 0.05; and C31A U34C U38G, with 0.
As for G30C G35A C42A, the self-cleavage was 0.14.
As for C31G G40U C46G, the self-cleavage amounted to 0.07.
Turning to G29A C31U U38C A39U, the self-cleavage amounted to 0.16.
Then U28C A41C C42U, with 0.01.
Then U32A U38A C46U, with 0.07; and G30C G36U A41U, with 0.16; and G30C G33A U34C, with 0.06.
Then C31G G40U U43G, with 0.01.
As for G36A A39C G40C, the self-cleavage was 0.
On to G29U U32G A41C C45A, for which the self-cleavage turned out to be 0.01.
C31A A39G C42G: the self-cleavage was found to be 0.06.
For G33C G35U C42U, the self-cleavage is 0.03.
Then G30A G35C C45U C46U, with 0.
As for G33A A39C A41G, the self-cleavage came to 0.02.
With G33U U34A G36A, the self-cleavage was found to be 0.
Then G29U U32G G40A, with 0.13.
